Data: the supplement of paper PMC11417369
This is one part of the list.

system: PfHDP1 homeodomain (GST-tagged); experiment: gcPBM binding intensity (ln(normalized median fluorescence intensity)); higher = stronger DNA binding
Summary of the method: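 GST-fused DNA-binding domains of P. falciparum, expressed in E. coli, were applied at about 25 μg on average for 1 h to an Agilent 4 × 180k array of primer-extended double-stranded 36-bp intergenic genomic probes and negative controls. Binding intensity is the highest Masliner-normalised natural-log median intensity across replicate spots of either probe orientation, measured with Alexa488 anti-GST antibody and a 488 nm scan.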

Sequence | gcPBM binding intensity (ln)
ATTTAAATAATATGTACACACATTTAAAAAGTTATA [CACACA_site7347] | 6.48
TAATATTTCGTTAAGTTTTAAAGAAAAAAAAAAAAA [CACACA_negctrl_site1253] | 5.9
ATATGTATAAAAATCCGTACATAAGTGTGCGTATAT [XGTACX_site4376] | 8.39
ATAAATAATATGTAAACACACAAAAAATAAAAATGA [CACACA_site1178] | 6.74
ATGTTTGAGCCTAAGGTGCATATAAAAATATATGTG [GTGCAC_site9690] | 9.09
TACTAAGAAGTATTTACACACCAACAAGGCGAAAAA [CACACA_site2944] | 6.3
ACATATATATATATATATATATATATATATAGATAG [CACACA_negctrl_site783] | 7.64
ATAAAGAAATTACACACATGCAATGAAAAAAAAAAA [TGCATGCA_site406] | 6.25
CTTTTTACTTAATACACACACACACTAAAAAAAAAA [CACACA_site6574] | 7.19
ACAAAAAAATATTTATGTACTTATTATATTTATAAT [XGTACX_site2059] | 6.1
AAAACTAAATGTTATTCGCACACGGAATTTATTTAA [CACACA_site9221] | 6.46
ATATATATTATATATGCATGCCAAATCTTTATAAAC [TGCATGCA_site1042] | 6.81
ATTCCAGAAATATATTAACAAGGAAAATATAAAAAT [CACACA_negctrl_site343] | 6.46
TTTTGAATATGGATCTTATATATATTAAATAAATAA [CACACA_negctrl_site344] | 5.97
ATAAAATGATGTATCTGTGTATGTTTATTTTGTTTT [XGTACX_negctrl_site367] | 6.29
TATTTCAAACTGTTCTCACACACGAAATTAGAAATG [CACACA_site611] | 6.29
ATTATATACAAATAAAGTACATAAACAAATTCAGAA [XGTACX_site1187] | 6.24
AAAAAAAAAAGAAATTGTACTTTTTGTTTAATAATT [XGTACX_site4681] | 6.18
ATATTTTGTTATGAAACACACACATATATATATATA [CACACA_site9216] | 9.21
TTGAGCCTACAAAAGGGTACACATTCAATTTATTTT [XGTACX_site6570] | 6.1
GAAACGTTTTTTCAGTGTACATTTTACCGATTTGTA [XGTACX_site8249] | 6.83
TAGTATAATATATATTGTACGTTTTAATTGTTTATA [XGTACX_site2731] | 6.24

Sequence | gcPBM binding intensity (ln)
AAAAAAAAAAAACACACACACAAATACAAATACATA [CACACA_site415] | 6.89
AAACTGAAAAAAATATGTACATATTTATATCTTATA [XGTACX_site3011] | 6.28
TAAAGCAACTGAAACACACAAATTTTTTTTTTTTTT [CACACA_site7499] | 6.01
ATTGTATAAAAATGTACATGCAATAAATTTAGTTCT [TGCATGCA_site675] | 6.82
ATATAACATTGTTTTGCATGTAAATATTCAATTTTT [TGCATGCA_site758] | 6.44
TCAAATTTAATCATAACACACATTCACATATGAATT [CACACA_site3199] | 6.28
TTTTTATAAATAATAAGGCGTATGAAAATAAAATAA [TGCATGCA_negctrl_site421] | 6.48
TCAAAATATCCAAAAGAATAAAGAAAAAAAAAAAGA [CACACA_negctrl_site1377] | 6.1
ATATAATGAAGTGAATGTACATATAAAATGTAAAAA [XGTACX_site8052] | 6.37
TCTTTTTTGAAGCATTTTGTTTTTTAATAAGTAAAA [TGCATGCA_negctrl_site247] | 6.21
TATATATATATTTAATGTACATGTTTATTTTATCAT [XGTACX_site499] | 8.26
AATAAAATAAAAAAAAATAAAAAAAAAATAAAAAAT [XGTACX_negctrl_site245] | 6.54
TATTTTTCTTTTTAAGTGCATGGTTGTATAAAATTT [GTGCAC_site9480] | 7.69
TTTATAAAGGGAAAGGTGCAAAAGGTGAAAGTTTTA | 10.1
TTATTAACGGAACTCTGTACTTAAAAAATTTTAGAA [XGTACX_site8787] | 6.25
TATATAAGAATATATACACACATATCTGTATTTATA [CACACA_site5231] | 6.3
AAAAAAACAGAAAACACACAAATTATCTTATAATTA [CACACA_site6282] | 6.32
ATTGTTTCATTAAAATGTACATAAATTGTGTATAAT [XGTACX_site5341] | 7.03
TATATCAAAAACGAGACATGCATGCCGTTCATTTTG [TGCATGCA_site211] | 6.05
GAGTTTATATTTTAAGCATGCATATGTTATTATTAT [TGCATGCA_site1049] | 6.64
CCTATAATTAGGGGTAGTACACAAAAAAAAAAAAAA [XGTACX_site6396] | 6.29
AATATATATTCATGTGTACACACAAAAAAAAATAAA [CACACA_site8690] | 7.36

Sequence | gcPBM binding intensity (ln)
AATTCCTTATACAATTGTACATAAAAAGAATAAAAA [XGTACX_site1343] | 6.47
TTAAAAAAGAATTGTGCACACACAAAAAATGTTCAT [CACACA_site1102] | 10.6
TGGTGTTTTTTTTAATGTACTTATAAAATAATACAT [XGTACX_site6574] | 6.53
TTTTTTTTACATGAACGTACATAATATATTTTATAA [XGTACX_site5249] | 6.59
ATGTAAAAATAAAGATGTACATGTATATATATATAT [XGTACX_site5193] | 9.03
CTGAGGAAGCTAATTACACACATGCATATTTTTTTT [CACACA_site2177] | 6.8
ATTATCTTCAAGTATGTACACACTATATATAATAAA [CACACA_site2441] | 6.58
ATCAAACAAAAAATAAAAAAATGCGACATGTGTACA [TGCATGCA_negctrl_site164] | 7.34
CAAGGACAATTTACAAACATAATATATGTATATATA [TGCATGCA_negctrl_site5] | 5.98
TTGAATACATATATATGTACATATTCTATGGTTAGA [XGTACX_site4088] | 6.45
TTAATATTTTTAATTTGTACATATAATTAAATCTCT [XGTACX_site1736] | 6.35
GAAAATTATGTATATTGTACAAATATTATATTAAAT [XGTACX_site2467] | 6.66
TATAAAATTTAAATTATACACACTTAAGTAACATCA [CACACA_site531] | 6.86
TACATGTATAATATAATACACACTATATAATATACA [CACACA_site2239] | 6.67
TACATACATACATACATACACACATATATATATATA [CACACA_site1996] | 9.22
AAATTATAATTAGGAACACACATATATATATATATA [CACACA_site3098] | 9.39
ATAACATGAACATATGTTACACAAACATACATACAT [XGTACX_negctrl_site365] | 6.77
AAAAAATATTTTAGTGGTACATTTGTAGCTCTCAAA [XGTACX_site4859] | 6.27
AATCAAATATTTAAATGTACTCAAGAAGGCTTAATC [XGTACX_site6907] | 6.08
GAAAAAAAAAAAAAAAAACACACGGTACATTCAAAG [CACACA_site303] | 6.07
AAAAATATAATATAATGTACACAAAAAAAAAAAATC [XGTACX_site1427] | 6.64
TATGAAGACACAAATACACACACTCAAAAAAAAAAA [CACACA_site2660] | 6.5

Sequence | gcPBM binding intensity (ln)
AAAAAGAAGATGCAAACATGCACACAGAAAAAAAAA [TGCATGCA_site375] | 8.5
CTATTATAAAAATGATGTACACTTATATATACATAT [XGTACX_site6087] | 6.69
TTTTTTTTTTGAATATGTACTTAAAAAAATTTTTTT [XGTACX_site3851] | 6.13
TAATTTTTTTTTTTTTTTTTTTTTTTTTTTTTTTTA [CACACA_negctrl_site1218] | 5.81
TTTTCATTCCACAACGCACACCCATTTAAAAAAAAA [CACACA_site1377] | 7.45
AAAAAAAAAAAAATTACACACATACAGATAATAATA [CACACA_site5244] | 6.49
TATGCAAGGAACCACACACACACACGGAAATGTATA [CACACA_site6490] | 6.77
AATTATGGGGAAAAGACACACATATATATATATATA [CACACA_site2589] | 9.35
ATACGACAAATATAAAGTACAAGCTTGGTTTTTATA [XGTACX_site8103] | 6.4
ATTCTATAGAAACACACACACATGCATGCACCTATA [CACACA_site107] | 8.67
TTATATATATATGTATGTACTTATAACTTTTATTAG [XGTACX_site3190] | 6.14
TTTATTTATAGAATTACACACATATATACACAAATG [CACACA_site7338] | 6.96
TTCTTTTTTTTCAGTTGTACTTATAAGAAAGAAAAA [XGTACX_site4028] | 6.37
TTTATTTTTAAAGGCACACACATTTTTATTTTTAAA [CACACA_site2021] | 6.44
AATATAAATATAGGAAATGTAGTTAAAAGGTGTATG [CACACA_negctrl_site1233] | 6.85
ATATATATAACAAAAGTGCATTAAGGGGATGCTATA | 8.66
TTATTATAAATAGGTAGTACATTTTGAACAAATATT [XGTACX_site8866] | 6.14
TTAATATAAATATGATTTTTGATTCCTATACTATTT [CACACA_negctrl_site752] | 5.95
TTGTATTCATATGGTTGTACATATTAAAAGTTCTAA [XGTACX_site7255] | 6.22
ATAAGGTTACAACAAACACACAAAGGAATATACGCA [CACACA_site4090] | 6.99
AAGAAGAATAGGCGTTGTACGGAATGTAGTAGAGTT [XGTACX_site2430] | 7.17
CACAAGAAAGTTCACACACACACATATATATATATA [CACACA_site6009] | 9.38
